The source of these data is the supplement of paper PMC10037445.

Over roughly 2,900 compounds, “NF-kB SEAP reporter activity, fold change vs agonist alone” has its median near 0.99; the highest 2% begin near 2.6. The list shows a part of the results.

The subject of assay [1] is RAW-Dual. Kind of assay: NF-kB SEAP reporter activity, fold change vs agonist alone; cytotoxicity flag (confluency mask): not cytotoxic; higher = enhanced NF-kB activity. The method in brief:
(§1)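 RAW-Dual macrophages were seeded in DMEM at 50,000 cells/well in 384-well plates, given 50 nL of library stock by pin tool, and given a PRR agonist 1 h later. Plates were held at 37 °C, 5% CO2 for 20 hours, after which supernatant was read for IRF by QuantiLuc luminescence and for NF-κB by QuantiBlue absorbance at 620 nm. Reporter activity is expressed as fold change over wells that received agonist alone. A well was called cytotoxic when IncuCyte confluency fell below 70% of agonist controls in both mask sets.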

In assay [2] the test system is RAW-Dual. Briefly: NF-kB SEAP reporter activity, fold change vs agonist alone; higher = enhanced NF-kB activity. The method in brief:
as §1

Assay [3] concerns RAW-Dual. Briefly: NF-kB SEAP reporter activity, fold change vs agonist alone; cytotoxicity flag (confluency mask): cytotoxic (confluency <70% of control); higher = enhanced NF-kB activity. The method in brief:
as §1

Where [4] appears, read: agonist: ODN 1826 (TLR9) 0.5 ug/mL.
Setting [5] is: agonist: Pam2CSK4 (TLR2/6) 0.1 ug/mL.
Setting [6] is: agonist: Pam3CSK4 (TLR2/1) 0.1 ug/mL.
[7] abbreviates: library stock concentration (final ~1000-fold dilution): 10 mM, cytotoxicity flag (confluency mask): not cytotoxic, agonist: Imiquimod (TLR7) […].
The mark [8] stands for this setting: library stock concentration (final ~1000-fold dilution): 10 mM, cytotoxicity flag (confluency mask): not cytotoxic, agonist: MPLA (TLR4) […].

For `O=c1ncccn1C1OC(CO)C(O)C1O` (configuration not stated) (library stock concentration (final ~1000-fold dilution): 10 mM), the “NF-kB SEAP reporter activity” value came out at 1.04 with RAW-Dual [1] (agonist: LPS (TLR4) 0.1 ug/mL), 0.93 in the assay on RAW-Dual [1] (setting [4]), 0.908 in the assay with RAW-Dual [1] (setting [5]) and 0.896 in the assay on RAW-Dual [1] (setting [6]).

As for `O=C(O)c1cc2cccc([N+](=O)[O-])c2[nH]1` (library stock concentration (final ~1000-fold dilution): 10 mM), the “NF-kB SEAP reporter activity” value in the assay with RAW-Dual [1] (agonist: LPS (TLR4) 0.1 ug/mL) is 1.15; in the assay on RAW-Dual [1] (setting [4]), 0.95; with RAW-Dual [1] (setting [5]) it was 1.03; in the assay on RAW-Dual [1] (setting [6]), 1.07.

On to `O=C(O)c1cc2cccc([N+](=O)[O-])c2[nH]1`, for which the “NF-kB SEAP reporter activity” value in the assay with RAW-Dual [2] (setting [7]) was 0.921; in the assay with RAW-Dual [2] (setting [8]) it was 1.07.

In the case of `CCCCCCCCCCCCCCCC(=O)OCC(O)C1OC(O)=C(O)C1=O` (configuration not stated) (library stock concentration (final ~1000-fold dilution): 10 mM), the “NF-kB SEAP reporter activity” value in the assay with RAW-Dual [1] (agonist: LPS (TLR4) 0.1 ug/mL) was 1.15; in the assay with RAW-Dual [1] (setting [4]), 0.825; in the assay with RAW-Dual [1] (setting [5]) it was 0.949; in the assay with RAW-Dual [1] (setting [6]), 0.67.

On to `CCCCCCCCCCCCCCCC(=O)OCC(O)C1OC(O)=C(O)C1=O` (configuration not stated), for which the “NF-kB SEAP reporter activity” value in the assay on RAW-Dual [2] (setting [7]) was 0.898; in the assay with RAW-Dual [2] (setting [8]), 1.01.

Turning to `CC1CN(CC(Cc2ccccc2)C(=O)NCC(=O)O)CCC1(C)c1cccc(O)c1.O.O` (configuration not stated), the “NF-kB SEAP reporter activity” value was 0.939 in the assay with RAW-Dual [2] (setting [7]) and 1.05 in the assay with RAW-Dual [2] (setting [8]).

In the case of `CC1CN(CC(Cc2ccccc2)C(=O)NCC(=O)O)CCC1(C)c1cccc(O)c1.O.O` (configuration not stated) (library stock concentration (final ~1000-fold dilution): 10 mM), the “NF-kB SEAP reporter activity” value in the assay with RAW-Dual [1] (agonist: LPS (TLR4) 0.1 ug/mL) worked out at 0.968; with RAW-Dual [1] (setting [4]), 0.969; in the assay with RAW-Dual [1] (setting [5]) it was 0.985; in the assay on RAW-Dual [1] (setting [6]), 1.11.

For `Cc1ccccc1C(OCCN(C)C)c1ccccc1.Cl` (configuration not stated), the figures for the “NF-kB SEAP reporter activity” value in the assay with RAW-Dual [2] (setting [7]) and in the assay with RAW-Dual [2] (setting [8]) were 1.38 and 1.13, respectively.

Regarding `Cc1ccccc1C(OCCN(C)C)c1ccccc1.Cl` (configuration not stated) (library stock concentration (final ~1000-fold dilution): 10 mM), the “NF-kB SEAP reporter activity” value in the assay with RAW-Dual [1] (agonist: LPS (TLR4) 0.1 ug/mL) was determined as 1.29; with RAW-Dual [1] (setting [4]), 0.935; in the assay with RAW-Dual [1] (setting [5]), 0.934; in the assay on RAW-Dual [1] (setting [6]), 0.932.

Take `CCNC1CC(C)S(=O)(=O)c2sc(S(N)(=O)=O)cc21.Cl` (configuration not stated) (library stock concentration (final ~1000-fold dilution): 10 mM water): the “NF-kB SEAP reporter activity” value in the assay with RAW-Dual [1] (agonist: LPS (TLR4) 0.1 ug/mL) worked out at 1.49; in the assay with RAW-Dual [1] (setting [4]), 1.13; in the assay with RAW-Dual [1] (setting [5]) it was 1.09; in the assay on RAW-Dual [1] (setting [6]), 0.997.

As to `CCNC1CC(C)S(=O)(=O)c2sc(S(N)(=O)=O)cc21.Cl` (configuration not stated), the “NF-kB SEAP reporter activity” value in the assay with RAW-Dual [2] (library stock concentration (final ~1000-fold dilution): 10 mM water, cytotoxicity flag (confluency mask): not cytotoxic, agonist: Imiquimod (TLR7) […]) came to 0.908; in the assay with RAW-Dual [2] (library stock concentration (final ~1000-fold dilution): 10 mM water, cytotoxicity flag (confluency mask): not cytotoxic, agonist: MPLA (TLR4) […]), 0.982.

As to `O=c1cc(-c2ccc(O)cc2)oc2cc(O[C@@H]3O[C@H](CO)[C@@H](O)[C@H](O)[C@H]3O)cc(O)c12`, the “NF-kB SEAP reporter activity” value was 1.12 in the assay on RAW-Dual [2] (setting [7]) and 1.13 in the assay with RAW-Dual [2] (setting [8]).

Turning to `O=c1cc(-c2ccc(O)cc2)oc2cc(O[C@@H]3O[C@H](CO)[C@@H](O)[C@H](O)[C@H]3O)cc(O)c12` (library stock concentration (final ~1000-fold dilution): 10 mM), the “NF-kB SEAP reporter activity” value in the assay with RAW-Dual [1] (agonist: LPS (TLR4) 0.1 ug/mL) amounted to 1.3; in the assay on RAW-Dual [1] (setting [4]), 1.28; in the assay on RAW-Dual [1] (setting [5]) it was 1.33; in the assay on RAW-Dual [1] (setting [6]) it was 1.18.

In the case of `CNCc1ccc(-c2[nH]c3cc(F)cc4c3c2CCNC4=O)cc1` (library stock concentration (final ~1000-fold dilution): 10 mM), the “NF-kB SEAP reporter activity” value came to 0.75 with RAW-Dual [1] (agonist: LPS (TLR4) 0.1 ug/mL), 0.182 with RAW-Dual [1] (setting [4]), 1.26 in the assay on RAW-Dual [1] (setting [5]) and 0.903 in the assay on RAW-Dual [1] (setting [6]).

As to `CNCc1ccc(-c2[nH]c3cc(F)cc4c3c2CCNC4=O)cc1`, the “NF-kB SEAP reporter activity” value turned out to be 1.13 in the assay on RAW-Dual [2] (setting [7]) and 0.75 in the assay on RAW-Dual [2] (setting [8]).

In the case of `CCNC(=O)c1noc(-c2cc(C(C)C)c(O)cc2O)c1-c1ccc(CN2CCOCC2)cc1` (library stock concentration (final ~1000-fold dilution): 10 mM), the “NF-kB SEAP reporter activity” value with RAW-Dual [3] (agonist: LPS (TLR4) 0.1 ug/mL) was determined as 0.325; in the assay with RAW-Dual [3] (setting [4]) it was 0.236; in the assay with RAW-Dual [3] (setting [5]), 0.142; with RAW-Dual [3] (setting [6]) it was 0.159.

Turning to `CCNC(=O)c1noc(-c2cc(C(C)C)c(O)cc2O)c1-c1ccc(CN2CCOCC2)cc1`, the “NF-kB SEAP reporter activity” value in the assay with RAW-Dual [2] (library stock concentration (final ~1000-fold dilution): 10 mM, cytotoxicity flag (confluency mask): cytotoxic (confluency <70% of control), agonist: Imiquimod (TLR7) […]) stood at 0.286; with RAW-Dual [2] (library stock concentration (final ~1000-fold dilution): 10 mM, cytotoxicity flag (confluency mask): cytotoxic (confluency <70% of control), agonist: MPLA (TLR4) […]), 0.742.
